Measured values published in the supplement of paper PMC4967469.
Lines with a small IC50 respond at low doses; fits outside the tested doses are given as limits. For AUC the same curve is integrated over the 256-fold range of doses and scaled to a fraction; it is 1 without any effect and falls as sensitivity rises. For part of these data: A top dose marked as inferred was calculated from the reported fits.

Key:
Test in all cases: Viability of human cancer cell lines after 72 h of drug (GDSC screen)
NVP-BHG712 = compound: Cc1ccc(C(=O)Nc2cccc(C(F)(F)F)c2)cc1Nc1nc(-c2cccnc2)nc2c1cnn2C [NVP-BHG712]; details: top dose 10.24 µM; top dose inferred
Method: (§1)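 Human cancer cell lines in 384-well plates, medium with 10% serum, drug for 72 h over a 256-fold dose range (nine 2-fold or five 4-fold steps up to the top dose). Adherent lines were fixed and stained with the nucleic acid dye Syto60, suspension lines read with resazurin; signal relative to control wells, capped at 0 and 100%. One two-parameter sigmoid per drug and line, fitted in a mixed model over all curves with the slope shared within a line.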

IOX2 = compound: O=C(O)CNC(=O)c1c(O)c2ccccc2n(Cc2ccccc2)c1=O [IOX2]; details: top dose 0.1 µM; top dose inferred
Method: as §1

Mitomycin C = compound: CO[C@@]12[C@H](COC(N)=O)C3=C(C(=O)C(C)=C(N)C3=O)N1C[C@@H]1N[C@@H]12 [Mitomycin C]; details: top dose 16 µM
Method: as §1

Bosutinib = compound: COc1cc(Nc2c(C#N)cnc3cc(OCCCN4CCN(C)CC4)c(OC)cc23)c(Cl)cc1Cl [Bosutinib]; details: top dose 2 µM
Method: as §1

Midostaurin = compound: CO[C@@H]1[C@H](N(C)C(=O)c2ccccc2)C[C@H]2O[C@]1(C)n1c3ccccc3c3c4c(c5c6ccccc6n2c5c31)C(=O)NC4 [Midostaurin]; details: top dose 0.512 µM; top dose inferred
Method: as §1

Row | Cell Line | AUC (NVP-BHG712) | IC50 (NVP-BHG712) [nM] | AUC (IOX2) | IC50 (IOX2) [nM] | AUC (Mitomycin C) | IC50 (Mitomycin C) [nM] | AUC (Bosutinib) | IC50 (Bosutinib) [nM] | AUC (Midostaurin) | IC50 (Midostaurin) [nM]
1 | Saos-2 (osteosarcoma, adherent) | 0.981 | > 10200 | 0.978 | > 100 | 0.565 | 1620 | 0.978 | > 2000 | 0.877 | > 512
2 | Calu-3 (lung adenocarcinoma, adherent) | 0.983 | > 10200 | 0.962 | > 100 | 0.321 | 275 | 0.983 | > 2000 | 0.793 | 303
3 | HuO9 (osteosarcoma, adherent) | 0.925 | > 10200 | 0.974 | > 100 | 0.588 | 1800 | 0.945 | > 2000 | 0.862 | > 512
4 | TOV-21G (ovary, adherent) | 0.941 | > 10200 | 0.979 | > 100 | 0.57 | 1580 | 0.71 | 519 | 0.901 | > 512
5 | AU565 (breast, adherent) | 0.96 | > 10200 | 0.971 | > 100 | 0.404 | 527 | 0.967 | > 2000 | 0.951 | > 512
6 | HO-1-u-1 (head and neck, adherent) | 0.976 | > 10200 | 0.987 | > 100 | 0.261 | 214 | 0.917 | > 2000 | 0.955 | > 512
7 | SJSA-1 (bone, adherent) | 0.908 | > 10200 | 0.974 | > 100 | 0.23 | 146 | 0.97 | > 2000 | 0.955 | > 512
8 | NCI-SNU-16 (stomach, suspension) | 0.987 | > 10200 | 0.989 | > 100 | 0.812 | 7350 | 0.972 | > 2000 | 0.991 | > 512
9 | LCLC-103H (large cell lung carcinoma, adherent) | 0.971 | > 10200 | 0.954 | > 100 | 0.355 | 414 | 0.985 | > 2000 | 0.795 | 213
10 | ME-180 (cervix, adherent) | 0.895 | > 10200 | 0.981 | > 100 | 0.132 | 63.6 | 0.825 | 1270 | 0.971 | > 512
11 | CCF-STTG1 (glioma, adherent) | 0.867 | 9400 | 0.98 | > 100 | 0.303 | 279 | 0.988 | > 2000 | 0.807 | 265
12 | HEC-1 (endometrium, adherent) | 0.975 | > 10200 | 0.984 | > 100 | 0.445 | 713 | 0.96 | > 2000 | 0.957 | > 512
13 | BICR10 (head and neck, adherent) | 0.985 | > 10200 | 0.981 | > 100 | 0.638 | 2570 | 0.837 | 1630 | 0.913 | > 512
14 | NCI-H727 (lung carcinoid, adherent) | 0.852 | > 10200 | 0.971 | > 100 | 0.283 | 160 | 0.957 | > 2000 | 0.893 | > 512
15 | 22RV1 (prostate, adherent) | 0.835 | 9180 | 0.961 | > 100 | 0.229 | 131 | 0.969 | > 2000 | 0.957 | > 512
16 | HT-3 (cervix, adherent) | 0.955 | > 10200 | 0.986 | > 100 | 0.095 | < 62.5 | 0.981 | > 2000 | 0.955 | > 512
17 | CAL-39 (cervix, adherent) | 0.907 | > 10200 | 0.984 | > 100 | 0.143 | 72.1 | 0.88 | > 2000 | 0.842 | 378
18 | LCLC-97TM1 (large cell lung carcinoma, adherent) | 0.871 | > 10200 | 0.977 | > 100 | 0.241 | 164 | 0.949 | > 2000 | 0.834 | 380
19 | KMH-2 (thyroid, adherent) | 0.99 | > 10200 | 0.989 | > 100 | 0.448 | 732 | 0.973 | > 2000 | 0.864 | 370
20 | NCI-H2122 (lung adenocarcinoma, adherent) | 0.971 | > 10200 | 0.975 | > 100 | 0.065 | < 62.5 | 0.989 | > 2000 | 0.854 | 365
21 | RH-41 (rhabdomyosarcoma, adherent) | 0.988 | > 10200 | 0.99 | > 100 | 0.615 | 1960 | 0.978 | > 2000 | 0.95 | > 512
22 | COLO-678 (large intestine, semi-adherent) | 0.977 | > 10200 | 0.983 | > 100 | 0.662 | 3220 | 0.926 | > 2000 | 0.946 | > 512
23 | SW626 (ovary, adherent) | 0.83 | 8100 | 0.981 | > 100 | 0.333 | 313 | 0.957 | > 2000 | 0.909 | > 512
24 | HCC1954 (breast, adherent) | 0.984 | > 10200 | 0.978 | > 100 | 0.576 | 1670 | 0.931 | > 2000 | 0.98 | > 512
25 | MES-SA (uterus, adherent) | 0.992 | > 10200 | 0.985 | > 100 | 0.196 | 150 | 0.928 | > 2000 | 0.68 | 93.1
26 | MEL-JUSO (melanoma, adherent) | 0.683 | 2230 | 0.982 | > 100 | 0.142 | 63.8 | 0.805 | 1160 | 0.822 | 345

Row | Cell Line | AUC (NVP-BHG712) | IC50 (NVP-BHG712) [nM] | AUC (IOX2) | IC50 (IOX2) [nM] | AUC (Mitomycin C) | IC50 (Mitomycin C) [nM] | AUC (Bosutinib) | IC50 (Bosutinib) [nM] | AUC (Midostaurin) | IC50 (Midostaurin) [nM]
27 | CaR-1 (large intestine, adherent) | 0.923 | > 10200 | 0.975 | > 100 | 0.42 | 541 | 0.91 | > 2000 | 0.871 | > 512
28 | CAL-29 (bladder, adherent) | 0.956 | > 10200 | 0.976 | > 100 | 0.249 | 178 | 0.891 | > 2000 | 0.935 | > 512
29 | H3118 (head and neck, adherent) | 0.822 | 6700 | 0.981 | > 100 | 0.271 | 208 | 0.535 | 157 | 0.853 | 462
30 | NCI-H2342 (lung adenocarcinoma, adherent) | 0.986 | > 10200 | 0.983 | > 100 | 0.124 | < 62.5 | 0.941 | > 2000 | 0.683 | 110
31 | OV-90 (ovary, adherent) | 0.783 | 5640 | 0.979 | > 100 | 0.315 | 259 | 0.955 | > 2000 | 0.913 | > 512
32 | WM-115 (melanoma, adherent) | 0.737 | 3610 | 0.972 | > 100 | 0.919 | > 16000 | 0.981 | > 2000 | 0.925 | > 512
33 | HuP-T3 (pancreas, adherent) | 0.929 | > 10200 | 0.922 | > 100 | 0.447 | 694 | 0.866 | > 2000 | 0.935 | > 512
34 | NCI-H28 (mesothelioma, adherent) | 0.932 | > 10200 | 0.965 | > 100 | 0.619 | 2370 | 0.927 | > 2000 | 0.796 | 332
35 | HCC1419 (breast, adherent) | 0.946 | > 10200 | 0.959 | > 100 | 0.705 | 4890 | 0.979 | > 2000 | 0.98 | > 512
36 | RERF-LC-MS (lung adenocarcinoma, adherent) | 0.974 | > 10200 | 0.985 | > 100 | 0.526 | 1180 | 0.971 | > 2000 | 0.951 | > 512
37 | KARPAS-620 (haematopoietic neoplasm, suspension) | 0.43 | 424 | 0.988 | > 100 | 0.623 | 2070 | 0.99 | > 2000 | 0.869 | 363
38 | MFE-296 (endometrium, adherent) | 0.98 | > 10200 | 0.98 | > 100 | 0.335 | 334 | 0.965 | > 2000 | 0.927 | > 512
39 | JHH-7 (liver, adherent) | 0.972 | > 10200 | 0.988 | > 100 | 0.24 | 188 | 0.981 | > 2000 | 0.851 | 355
40 | NCI-H1048 (small cell lung carcinoma, adherent) | 0.872 | 8080 | 0.989 | > 100 | 0.204 | 150 | 0.926 | > 2000 | 0.92 | > 512
41 | OE21 (oesophagus, adherent) | 0.957 | > 10200 | 0.971 | > 100 | 0.366 | 369 | 0.687 | 515 | 0.794 | 344
42 | BT-483 (breast, adherent) | 0.976 | > 10200 | 0.955 | > 100 | 0.778 | 14200 | 0.972 | > 2000 | 0.949 | > 512
43 | RVH-421 (melanoma, adherent) | 0.722 | 3510 | 0.971 | > 100 | 0.434 | 617 | 0.917 | > 2000 | 0.971 | > 512
44 | SAS (head and neck, adherent) | 0.897 | > 10200 | 0.974 | > 100 | 0.417 | 577 | 0.891 | > 2000 | 0.984 | > 512
45 | MDA-MB-453 (breast, adherent) | 0.986 | > 10200 | 0.984 | > 100 | 0.491 | 940 | 0.972 | > 2000 | 0.984 | > 512
46 | RO82-W-1 (thyroid, adherent) | 0.965 | > 10200 | 0.965 | > 100 | 0.817 | 12300 | 0.878 | > 2000 | 0.903 | > 512
47 | PFSK-1 (medulloblastoma, adherent) | 0.972 | > 10200 | 0.966 | > 100 | 0.732 | 4790 | 0.959 | > 2000 | 0.975 | > 512
48 | A704 (kidney, adherent) | 0.901 | > 10200 | 0.986 | > 100 | 0.651 | 2590 | 0.943 | > 2000 | 0.87 | 453
49 | RXF393 (kidney, adherent) | 0.822 | 9300 | 0.96 | > 100 | 0.588 | 1910 | 0.897 | > 2000 | 0.823 | 472
50 | H2373 (mesothelioma, adherent) | 0.948 | > 10200 | 0.975 | > 100 | 0.617 | 2280 | 0.88 | > 2000 | 0.96 | > 512
51 | C-4-I (cervix, adherent) | 0.961 | > 10200 | 0.984 | > 100 | 0.242 | 167 | 0.812 | 1190 | 0.886 | > 512
